Assay results taken from PubChem BioAssay AID1347165 (National Center for Advancing Translational Sciences (NCATS), 2019).
Screen size: about 220,000 compounds; about 5,700 (2.6%) were called active. The inconclusive results got no clear call from the source; some entries with a clear call stand among them for comparison. Calls follow the shape of the dose curve; as a rule, active = well fitted inhibition curve with a large enough effect; inconclusive = small, poorly fitted or top-dose-only effect; inactive = no such curve, though single readings can be large or run the other way. Potencies of inconclusive entries are doubtful fits and often do not repeat.

target: Lysine-specific demethylase 5B (Homo sapiens) (UniProt Q9UGL1); experiment: Primary screen for KDM5B Histone Demethylases FDH-coupled qHTS; details: FDH-coupled NADH fluorescence (FDH is formaldehyde dehydrogenase); activity change, negative = inhibition: at 57.7 µM (top of the series) unless noted; also: nearly all actives have a fitted effect of over 70% in size; as to activity change, negative = inhibition: 0% is about no effect
UniProt Q9UGL1, sequence (Q9UGL1 whole entry, looked up): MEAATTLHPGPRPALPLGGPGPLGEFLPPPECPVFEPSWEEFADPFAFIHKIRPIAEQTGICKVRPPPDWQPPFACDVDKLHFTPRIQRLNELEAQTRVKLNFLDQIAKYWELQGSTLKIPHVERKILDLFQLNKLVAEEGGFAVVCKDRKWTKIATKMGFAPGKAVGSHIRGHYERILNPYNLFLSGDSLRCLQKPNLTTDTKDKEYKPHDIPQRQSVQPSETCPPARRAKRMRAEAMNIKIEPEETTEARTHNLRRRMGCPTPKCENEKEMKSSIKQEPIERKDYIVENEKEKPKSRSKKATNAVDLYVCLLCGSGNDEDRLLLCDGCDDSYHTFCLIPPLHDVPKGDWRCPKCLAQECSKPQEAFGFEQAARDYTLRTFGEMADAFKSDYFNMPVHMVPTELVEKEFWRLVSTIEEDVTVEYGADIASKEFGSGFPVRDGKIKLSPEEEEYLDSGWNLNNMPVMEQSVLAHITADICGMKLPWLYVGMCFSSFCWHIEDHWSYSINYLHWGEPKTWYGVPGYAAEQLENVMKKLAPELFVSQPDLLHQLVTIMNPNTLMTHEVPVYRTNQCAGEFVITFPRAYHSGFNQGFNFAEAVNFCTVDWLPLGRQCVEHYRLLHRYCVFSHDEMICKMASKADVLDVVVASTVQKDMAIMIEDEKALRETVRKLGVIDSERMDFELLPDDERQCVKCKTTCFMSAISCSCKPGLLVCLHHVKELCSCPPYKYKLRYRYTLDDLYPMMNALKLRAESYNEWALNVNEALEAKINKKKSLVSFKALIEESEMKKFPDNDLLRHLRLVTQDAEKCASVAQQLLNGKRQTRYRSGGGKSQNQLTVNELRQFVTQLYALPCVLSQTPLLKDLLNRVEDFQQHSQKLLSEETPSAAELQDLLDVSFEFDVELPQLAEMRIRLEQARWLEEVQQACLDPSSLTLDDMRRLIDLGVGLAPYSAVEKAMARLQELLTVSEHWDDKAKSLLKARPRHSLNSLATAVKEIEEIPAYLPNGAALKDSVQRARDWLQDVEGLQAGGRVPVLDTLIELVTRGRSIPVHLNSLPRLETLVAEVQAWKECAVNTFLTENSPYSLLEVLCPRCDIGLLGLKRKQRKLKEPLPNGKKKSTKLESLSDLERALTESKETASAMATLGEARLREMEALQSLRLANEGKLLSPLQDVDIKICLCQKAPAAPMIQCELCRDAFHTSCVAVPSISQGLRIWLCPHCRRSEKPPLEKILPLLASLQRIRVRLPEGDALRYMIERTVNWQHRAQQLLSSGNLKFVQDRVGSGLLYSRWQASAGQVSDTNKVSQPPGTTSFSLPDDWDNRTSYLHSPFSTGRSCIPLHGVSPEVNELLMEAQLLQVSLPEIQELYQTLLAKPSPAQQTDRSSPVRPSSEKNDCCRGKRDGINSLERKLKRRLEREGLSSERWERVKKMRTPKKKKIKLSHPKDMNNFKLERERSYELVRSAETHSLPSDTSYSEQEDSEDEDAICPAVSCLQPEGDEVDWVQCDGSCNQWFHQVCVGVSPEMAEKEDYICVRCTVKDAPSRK
Method in brief: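 Coupled FDH/NAD⁺ fluorescence readout. KDM5BΔAP 200 nM final; compound titration, 10 min RT preincubation; substrate mix 12.5 µM H3K4me3, 25 µM 2-OG, 50 µM Fe(II), 100 µM ascorbate, 0.25 mM NAD⁺, 0.25 U/mL FDH; ΔRFU over 30 min.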
Potency is read from the fitted curve at half-maximal effect; tags tell the direction and shape of the fitted curve.

SMILES	Potency	activity change, negative = inhibition
CC1CCCc2sc(N)c(C#N)c21 (stereo not given)	inconclusive: 28.2 µM [inhibitor, single point]	
O=C(NC1CC1)c1cc(-c2ccccc2C(F)(F)F)nc2onc(C3CCCN3)c12 (stereo not given)	inconclusive: 79.4 µM [inhibitor, partial curve]	
Cc1ccc(-n2ncc(C(=O)NCCN3CCC(Cc4ccccc4)CC3)c2C2CCN(C(=O)OC(C)(C)C)CC2)cc1	inconclusive: 1 µM [inhibitor, partial curve, poor fit]	
CC1(c2ccc3c(c2)OCO3)NC(=O)N(Cc2coc(-c3cccs3)n2)C1=O (stereo not given)	inactive	
CN(Cc1cnccn1)C(=O)CC1C(=O)NCCN1Cc1ccc(F)cc1Cl (stereo not given)	inconclusive: 39.8 µM [inhibitor, partial curve, poor fit]	
CCCCOC(=O)Nc1ccccc1N=C1CCC/C1=C\c1ccccc1	inconclusive: 15.8 µM [inhibitor, partial curve, poor fit]	
O=C(C1CCCC1)N1CCN(c2cc(-c3ccccc3)[nH]n2)CC1	inconclusive: 28.2 µM [inhibitor, partial curve, poor fit]	
N#Cc1cn(CC(=O)Nc2cc(F)ccc2F)c2ccccc12	inactive	
Cc1cnc(CC2CCNC2)n1Cc1ccccc1 (stereo not given)	inactive	
CCC(=O)N1CCC(Oc2ccc(NC(=O)NCc3ccccc3)cn2)C1 (stereo not given)	inconclusive: 14.1 µM [inhibitor, partial curve, poor fit]	
CCc1ccccc1NC(=O)CCNC(=O)Cn1ccc2ccccc2c1=O	inconclusive: 35.5 µM [inhibitor, single point]	
CCc1ccc2oc(-c3cc(NC(=O)c4cccs4)ccc3Cl)nc2c1	inconclusive: 39.8 µM [inhibitor, single point]	
Cc1nc(-c2ccc(F)cc2)n(Cc2nc(-c3ccc(OC(C)C)cc3)oc2C)c(=O)c1CCO	active: 15.8 µM	
Cc1ccc2c(CN3CCCCCC3)cc(=O)oc2c1	inconclusive: 22.4 µM [inhibitor, partial curve, poor fit]	
CCC(C)NC(=O)Cn1ccc2cc(S(=O)(=O)N3CCCCCC3)ccc21 (stereo not given)	inconclusive: 1.58 µM [inhibitor, partial curve, poor fit]	
Cc1ccc(NC(=O)c2cn(CCC#N)nc2-c2cccs2)cc1	inactive	
COc1cccc(CC(=O)N2CCC3(CC2)NC(=O)N(c2ccc(F)cc2)N3)c1	inconclusive: 22.4 µM [inhibitor, single point]	
Cc1ccc(CC(=O)NCc2nnc3c(-c4nc(C5CC5)no4)cccn23)cc1	inconclusive: 25.1 µM [inhibitor, partial curve, poor fit]	
COc1ccc(-c2cn[nH]c2-c2ccc(O)cc2O)cc1OC	inconclusive: 39.8 µM [inhibitor, partial curve, poor fit]	
Cc1ccc(-c2nc(C#N)c(N3CCN(C)CC3)o2)cc1	inconclusive: 31.6 µM [inhibitor, partial curve, poor fit]	
N#Cc1ccc(C(=O)NCCCC2CCCC2)cc1	inactive	
COc1ccc(C)cc1S(=O)(=O)N(C)CC(=O)NCc1ccncc1	inconclusive: 39.8 µM [inhibitor, partial curve, poor fit]	

SMILES	Potency	activity change, negative = inhibition
CC(C)CN(Cc1nnc2cc(-c3nc(-c4ccccc4)no3)ccn12)CC(C)C	inconclusive: 3.98 µM [inhibitor, partial curve, poor fit]	
CCCC1CCCN(C(=O)Cc2nn(C)c(=O)c3ccccc23)CC1 (stereo not given)	inactive	
CCCCCOc1ccc(/C=C/C(=O)Nc2sc3c(c2C(=O)OCC)CCC3)cc1OC		inconclusive: -40% [inhibitor]
O=C1NCC2(CCCN(C(=O)c3cnc4c(O)cccn4c3=O)C2)O1 (stereo not given)	active: 31.6 µM	
Cc1cc(CNC(=O)Cc2nonc2C)c2[nH]c(-c3ccccc3)c(C)c2c1	inconclusive: 17.8 µM [inhibitor, partial curve, poor fit]	
N#Cc1cccnc1N1CCN(C(=O)c2cccs2)CC1	inconclusive: 22.4 µM [inhibitor, partial curve, poor fit]	
CC(=O)NC1(C)CCN(Cc2ccc(-c3cccc(Cl)c3)cc2)C1 (stereo not given)	inconclusive: 39.8 µM [inhibitor, partial curve, poor fit]	
CN(C)C(=O)c1ccc(-c2ccc3ncn(-c4ccc(F)cc4F)c(=O)c3n2)cc1	inconclusive: 56.2 µM [inhibitor, single point]	
O=C(C1CC1)N1CCC2(C1)C(=O)N(CCc1ccccc1)c1ccccc12 (stereo not given)	inactive	
CCOc1ccc(-c2[nH]nc3c2C(c2cn[nH]c2-c2ccc(F)cc2)C(C#N)=C(N)O3)cc1 (stereo not given)	inconclusive: 28.2 µM [inhibitor, partial curve, poor fit]	
CC1(C)CC(=O)c2cc3c(N)c(C#N)sc3nc2C1	inactive	
N#Cc1cccc(NC(=O)N2Cc3[nH]cnc3C[C@H]2c2nc(-c3cccc([N+](=O)[O-])c3)no2)c1	inactive	
Cc1ccc(CNc2nc3nc(C)c(CCC(=O)Nc4cccc5ccccc45)c(=O)n3[nH]2)cc1	inactive	
Cc1ccccc1-c1noc(COc2ccc3ccc(=O)oc3c2)n1	inconclusive: 28.2 µM [inhibitor, partial curve, poor fit]	
C[S+](=O)([O-])Nc1cccc(-c2nc(N3CCOCC3)cc3c2CN(CC2CC2)C3=O)c1	active: 28.2 µM	
c1ccc(OCCCCN2CCOCC2)c(CNC2CCNC2)c1 (stereo not given)	inconclusive: 8.91 µM [inhibitor, single point]	
CN(C)C[C@@H]1CN(S(C)(=O)=O)C[C@H]1NC(=O)c1c(F)cccc1Cl	inactive	
COc1ccc(-c2c(C)nc(N)nc2-c2ccc(OC)cc2O)cc1	inconclusive: 31.6 µM [inhibitor, partial curve, poor fit]	
CCc1ccc(S(=O)(=O)c2nnn3c2nc(N(CC)Cc2ccccc2)c2cc(Cl)ccc23)cc1		inconclusive: -37.1% [inhibitor]
Cc1cc2n(n1)CCCN2C(=O)Nc1ccccc1C(F)(F)F	inconclusive: 28.2 µM [inhibitor, single point]	
CCC(C)OC(=O)/C(C#N)=C/c1ccc(-c2ccc(Br)cc2)o1 (stereo not given)		inconclusive: -42.2% [inhibitor] [at 11.5 µM]
O=C(c1noc(-c2ccc(F)cc2)n1)N1CCN(c2ccc(Cl)cc2)CC1	inconclusive: 31.6 µM [inhibitor, single point]	

SMILES	Potency	activity change, negative = inhibition
N#Cc1cccc(/C=C2\CSc3ccccc3C2=O)c1	inconclusive: 14.1 µM [inhibitor, partial curve, poor fit]	
CN(CCc1ccccn1)[C@H]1[C@@H]2OC[C@@H](O2)[C@@H](NCc2ccncc2)[C@@H]1O	inconclusive: 25.1 µM [inhibitor, partial curve, poor fit]	
Cc1oc(-c2cccc(Cl)c2)nc1Cn1c(SCc2ccc(F)cc2)nc2cccnc21	inconclusive: 15.8 µM [inhibitor, partial curve, poor fit]	
Cc1cccc(N2CCn3c2nc2c3c(=O)n(CCCc3ccccc3)c(=O)n2C)c1		inconclusive: -38.2% [inhibitor]
CN(Cc1cc2ccccc2[nH]c1=O)C(=O)c1cccc(Cl)c1	inconclusive: 35.5 µM [inhibitor, single point]	
Cc1nc2cc(N3CCCC(C(=O)NCCN4CCCCCC4)C3)cnc2nc1C (stereo not given)	inconclusive: 8.91 µM [inhibitor, partial curve, poor fit]	
CNC(=O)C1(C)CN(Cc2ccccc2)Cc2ccc(Nc3ccccc3)nc21 (stereo not given)	active: 35.5 µM	
COc1ccc(N2CC(c3noc(-c4ccc(OC)cc4C)n3)CC2=O)cc1 (stereo not given)	inconclusive: 31.6 µM [inhibitor, single point]	
COc1ccc(OC)c(C(=O)COC(=O)c2c(Cl)cccc2Cl)c1	inconclusive: 39.8 µM [inhibitor, single point]	
CCCN(C)c1nccnc1OC1CCN(C(=O)c2ccccc2OC)C1 (stereo not given)	active: 28.2 µM	
Cc1cc(C(=O)N2CCC(C(=O)N3CCCCCCNC(=O)CC3)CC2)nn1C	inactive	
O=C(Nc1ccc2c(c1)OCO2)NC1(C(F)(F)F)Oc2ccccc2O1	inconclusive: 11.2 µM [inhibitor, partial curve, poor fit]	
O=C1NCc2ccccc2CC12CCCCN2CCCc1ccccc1 (stereo not given)	inactive	
O=C(N[C@@H]1CN(c2ncccn2)C[C@H]1CO)c1ccncc1	inconclusive: 25.1 µM [inhibitor, partial curve, poor fit]	
Cc1cccc(-n2cc(CN(C)C(C)c3ccon3)c(-c3cccc(F)c3)n2)c1 (stereo not given)	inconclusive: 35.5 µM [inhibitor, partial curve, poor fit]	
COc1ccc2cc(/C=C(/CC(=O)O)c3nc4ccccc4s3)ccc2c1	inconclusive: 39.8 µM [inhibitor, single point]	
O=C(CSc1nnc(-c2cccs2)n1-c1ccccc1)Nc1ccc(Cl)cn1	inactive	
O=C(c1ccc(-c2ncc3cnc(-c4cccc(F)c4)cn23)cc1)N1CC(O)C1	inconclusive: 39.8 µM [inhibitor, partial curve, poor fit]	
Cc1cnc(NC(=O)c2nn(C(C)C)c(=O)c3ccccc23)s1	inactive	
Cc1ccc(NC(=O)N2CC=C(c3c[nH]c4ccccc34)CC2)cc1Cl	inconclusive: 14.1 µM [inhibitor, partial curve, poor fit]	
CCOCCn1ccc2c(OCC(=O)Nc3cc(C)cc(C)c3)cccc2c1=O	inconclusive: 39.8 µM [inhibitor, single point]	
